Test results reported in publication PMC12820563, “FoxP3 forms a head-to-head dimer in vivo and stabilizes its multimerization on adjacent microsatellites”.
Some of the results follow.

Biological target: T1, MBP-FoxP1dN (Mus musculus, UniProt P58462 326-579)
T1 sequence: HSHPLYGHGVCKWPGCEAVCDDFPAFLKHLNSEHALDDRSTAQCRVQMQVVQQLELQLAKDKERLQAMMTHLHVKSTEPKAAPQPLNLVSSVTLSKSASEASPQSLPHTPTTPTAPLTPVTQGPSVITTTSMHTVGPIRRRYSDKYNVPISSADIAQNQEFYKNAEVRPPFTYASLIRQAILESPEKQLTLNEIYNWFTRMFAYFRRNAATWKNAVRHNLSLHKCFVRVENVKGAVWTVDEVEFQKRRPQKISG
Experiment: PD-seq (MBP pull-down with sequencing); 20 mM Tris-HCl pH 7.5, 100 mM NaCl, 1.5 mM MgCl2, 0.4 uM protein, 0.1 uM dsDNA library, 30 min, room temperature, amylose pull-down; high values mean tight binding
Details: protein: recombinant; tags: His6-MBP; chain copies: 2; dsDNA, one strand shown
Summary of the method: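 Binding is reads-per-million enrichment of pull-down over input, with replicates pooled. It comes from 30 min room-temperature incubation in Tris pH 7.5 buffer with NaCl and MgCl2 of 0.4 µM His6-MBP-tagged, N-terminally truncated mouse FoxP3 or FoxP1 fragment from E. coli with 0.1 µM Klenow-filled degenerate double-stranded DNA library, followed by amylose resin capture, three washes and Illumina sequencing of the released DNA.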

| Sequence | binding signal |
| --- | --- |
| GATGATTGTTCTCCCAGCTGATGAATTACTGCCATCGAGTAAACAAATTTTCCTAATCTTTCTGTTCAAGCGCCATCTAC | 1.04 RPM ratio (pull-down/input) |
| GATGATTGTTCTCCCAGCTGATGAATTTCTCTTCTCGAGTAAACAAATTTTCCTAATCTTTCTGTTCAAGCGCCATCTAC | 0.81 RPM ratio (pull-down/input) |
| GATGATTGTTCTCCCAGCTGATGAATTACAGATGTCGAGTAAACAAATTTTCCTAATCTTTCTGTTCAAGCGCCATCTAC | 1.19 RPM ratio (pull-down/input) |
| GATGATTGTTCTCCCAGCTGATGAATTGGGAGTATCGAGTAAACAAATTTTCCTAATCTTTCTGTTCAAGCGCCATCTAC | 0.972 RPM ratio (pull-down/input) |
| GATGATTGTTCTCCCAGCTGATGAATTTATTCGATCGAGTAAACAAATTTTCCTAATCTTTCTGTTCAAGCGCCATCTAC | 1.14 RPM ratio (pull-down/input) |
| GATGATTGTTCTCCCAGCTGATGAATTCGGATACTCGAGTAAACAAATTTTCCTAATCTTTCTGTTCAAGCGCCATCTAC | 0.852 RPM ratio (pull-down/input) |
| GATGATTGTTCTCCCAGCTGATGAATTGCGCTGTTCGAGTAAACAAATTTTCCTAATCTTTCTGTTCAAGCGCCATCTAC | 1.07 RPM ratio (pull-down/input) |
| GATGATTGTTCTCCCAGCTGATGAATTATTTGTGTCGAGTAAACAAATTTTCCTAATCTTTCTGTTCAAGCGCCATCTAC | 2.12 RPM ratio (pull-down/input) |
| GATGATTGTTCTCCCAGCTGATGAATTAAGTTCATCGAGTAAACAAATTTTCCTAATCTTTCTGTTCAAGCGCCATCTAC | 0.931 RPM ratio (pull-down/input) |
| GATGATTGTTCTCCCAGCTGATGAATTTGGCATGTCGAGTAAACAAATTTTCCTAATCTTTCTGTTCAAGCGCCATCTAC | 0.89 RPM ratio (pull-down/input) |
| GATGATTGTTCTCCCAGCTGATGAATTAGCCCTATCGAGTAAACAAATTTTCCTAATCTTTCTGTTCAAGCGCCATCTAC | 0.874 RPM ratio (pull-down/input) |
| GATGATTGTTCTCCCAGCTGATGAATTAACTTCATCGAGTAAACAAATTTTCCTAATCTTTCTGTTCAAGCGCCATCTAC | 0.889 RPM ratio (pull-down/input) |
| GATGATTGTTCTCCCAGCTGATGAATTCTAGAGGTCGAGTAAACAAATTTTCCTAATCTTTCTGTTCAAGCGCCATCTAC | 0.79 RPM ratio (pull-down/input) |
| GATGATTGTTCTCCCAGCTGATGAATTTTGGATATCGAGTAAACAAATTTTCCTAATCTTTCTGTTCAAGCGCCATCTAC | 1.05 RPM ratio (pull-down/input) |
| GATGATTGTTCTCCCAGCTGATGAATTCTTCTACTCGAGTAAACAAATTTTCCTAATCTTTCTGTTCAAGCGCCATCTAC | 0.88 RPM ratio (pull-down/input) |
| GATGATTGTTCTCCCAGCTGATGAATTTTCTGACTCGAGTAAACAAATTTTCCTAATCTTTCTGTTCAAGCGCCATCTAC | 0.853 RPM ratio (pull-down/input) |

| Sequence | binding signal |
| --- | --- |
| GATGATTGTTCTCCCAGCTGATGAATTCTCACAATCGAGTAAACAAATTTTCCTAATCTTTCTGTTCAAGCGCCATCTAC | 1.32 RPM ratio (pull-down/input) |
| GATGATTGTTCTCCCAGCTGATGAATTCATCTTGTCGAGTAAACAAATTTTCCTAATCTTTCTGTTCAAGCGCCATCTAC | 0.898 RPM ratio (pull-down/input) |
| GATGATTGTTCTCCCAGCTGATGAATTTCCCCTATCGAGTAAACAAATTTTCCTAATCTTTCTGTTCAAGCGCCATCTAC | 0.86 RPM ratio (pull-down/input) |
| GATGATTGTTCTCCCAGCTGATGAATTACAAGGATCGAGTAAACAAATTTTCCTAATCTTTCTGTTCAAGCGCCATCTAC | 1.04 RPM ratio (pull-down/input) |
| GATGATTGTTCTCCCAGCTGATGAATTTGGGTAATCGAGTAAACAAATTTTCCTAATCTTTCTGTTCAAGCGCCATCTAC | 1.27 RPM ratio (pull-down/input) |
| GATGATTGTTCTCCCAGCTGATGAATTTTACGTCTCGAGTAAACAAATTTTCCTAATCTTTCTGTTCAAGCGCCATCTAC | 0.869 RPM ratio (pull-down/input) |
| GATGATTGTTCTCCCAGCTGATGAATTTAAGTAATCGAGTAAACAAATTTTCCTAATCTTTCTGTTCAAGCGCCATCTAC | 1.67 RPM ratio (pull-down/input) |
| GATGATTGTTCTCCCAGCTGATGAATTCCGTACCTCGAGTAAACAAATTTTCCTAATCTTTCTGTTCAAGCGCCATCTAC | 0.829 RPM ratio (pull-down/input) |
| GATGATTGTTCTCCCAGCTGATGAATTCACGTACTCGAGTAAACAAATTTTCCTAATCTTTCTGTTCAAGCGCCATCTAC | 0.909 RPM ratio (pull-down/input) |
| GATGATTGTTCTCCCAGCTGATGAATTAGGCGACTCGAGTAAACAAATTTTCCTAATCTTTCTGTTCAAGCGCCATCTAC | 0.87 RPM ratio (pull-down/input) |
| GATGATTGTTCTCCCAGCTGATGAATTGCGGGTATCGAGTAAACAAATTTTCCTAATCTTTCTGTTCAAGCGCCATCTAC | 1.08 RPM ratio (pull-down/input) |
| GATGATTGTTCTCCCAGCTGATGAATTCGCTGCTTCGAGTAAACAAATTTTCCTAATCTTTCTGTTCAAGCGCCATCTAC | 0.883 RPM ratio (pull-down/input) |
| GATGATTGTTCTCCCAGCTGATGAATTCGCACCCTCGAGTAAACAAATTTTCCTAATCTTTCTGTTCAAGCGCCATCTAC | 0.806 RPM ratio (pull-down/input) |
| GATGATTGTTCTCCCAGCTGATGAATTCGAGATATCGAGTAAACAAATTTTCCTAATCTTTCTGTTCAAGCGCCATCTAC | 0.953 RPM ratio (pull-down/input) |
| GATGATTGTTCTCCCAGCTGATGAATTGTAGTATTCGAGTAAACAAATTTTCCTAATCTTTCTGTTCAAGCGCCATCTAC | 1.31 RPM ratio (pull-down/input) |
| GATGATTGTTCTCCCAGCTGATGAATTCGCACACTCGAGTAAACAAATTTTCCTAATCTTTCTGTTCAAGCGCCATCTAC | 0.939 RPM ratio (pull-down/input) |
